Measurements from the supplement of paper PMC4967469.
IC50 is the fitted dose that halves viability relative to control wells, and lower means more sensitive; where the fit passes the top or lowest dose, that dose stands as a limit. AUC sums up the same curve from the lowest dose to the 256-fold higher top dose; the more sensitive the line, the further below 1. For some of these results: Where the top dose is marked as inferred, it is not printed in the source and was worked back from the curve model. For some of these results: Drugs with an entry number were screened twice under separate entries, and the two screens often disagree.

How the values were obtained:
Assay in all cases: Viability of human cancer cell lines after 72 h of drug (GDSC screen)
AR-42 = compound: CC(C)[C@H](C(=O)Nc1ccc(C(=O)NO)cc1)c1ccccc1 [AR-42]; details: top dose 5.12 µM; top dose inferred
Procedure: (§1)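 Human cancer cell lines in 384-well plates, medium with 10% serum, drug for 72 h over a 256-fold dose range (nine 2-fold or five 4-fold steps up to the top dose). Adherent lines were fixed and stained with the nucleic acid dye Syto60, suspension lines read with resazurin; signal relative to control wells, capped at 0 and 100%. One two-parameter sigmoid per drug and line, fitted in a mixed model over all curves with the slope shared within a line.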

CEP-701 = compound: C[C@]12O[C@H](C[C@]1(O)CO)n1c3ccccc3c3c4c(c5c6ccccc6n2c5c31)CNC4=O [CEP-701]; details: top dose 2 µM; top dose inferred
Procedure: as §1

GDC0941 = compound: CS(=O)(=O)N1CCN(Cc2cc3nc(-c4cccc5[nH]ncc45)nc(N4CCOCC4)c3s2)CC1 [GDC0941]; details: top dose 4 µM; screen: GDSC drug entry 1527; top dose inferred
Procedure: as §1

Sunitinib = compound: CCN(CC)CCNC(=O)c1c(C)[nH]c(/C=C2\C(=O)Nc3ccc(F)cc32)c1C [Sunitinib]; details: top dose 8 µM
Procedure: as §1

Pazopanib = compound: Cc1ccc(Nc2nccc(N(C)c3ccc4c(C)n(C)nc4c3)n2)cc1S(N)(=O)=O [Pazopanib]; details: top dose 8 µM
Procedure: as §1

MG-132 = compound: CC(C)C[C@@H](C=O)NC(=O)[C@H](CC(C)C)NC(=O)[C@H](CC(C)C)NC(=O)OCc1ccccc1 [MG-132]; details: top dose 1 µM
Procedure: as §1

SB 216763 = compound: Cn1cc(C2=C(c3ccc(Cl)cc3Cl)C(=O)NC2=O)c2ccccc21 [SB 216763]; details: top dose 10 µM; top dose inferred
Procedure: as §1

| Cell Line | AUC (AR-42) | IC50 (AR-42) [µM] | AUC (CEP-701) | IC50 (CEP-701) [µM] | AUC (GDC0941) | IC50 (GDC0941) [µM] | AUC (Sunitinib) | IC50 (Sunitinib) [µM] | AUC (Pazopanib) | IC50 (Pazopanib) [µM] | AUC (MG-132) | IC50 (MG-132) [µM] | AUC (SB 216763) | IC50 (SB 216763) [µM] |
| --- | --- | --- | --- | --- | --- | --- | --- | --- | --- | --- | --- | --- | --- | --- |
| BC-1 (B-cell lymphoma, suspension) | 0.405 | 0.183 | 0.857 | 1.26 | 0.823 | 1.92 | 0.891 | 6.88 | 0.902 | 7.72 | 0.873 | 0.722 | 0.976 | > 10 |
| NCI-H1304 (small cell lung carcinoma, suspension) | 0.849 | 4.31 | 0.903 | > 2 | 0.859 | 3.74 | 0.91 | > 8 | 0.933 | > 8 | 0.821 | 0.639 | 0.988 | > 10 |
| A101D (melanoma, adherent) | 0.581 | 0.559 | 0.606 | 0.262 | 0.629 | 0.617 | 0.754 | 3.25 | 0.91 | > 8 | 0.418 | 0.0353 | 0.907 | > 10 |
| NCI-H1417 (small cell lung carcinoma, suspension) | 0.337 | 0.103 | 0.446 | 0.0866 | 0.42 | 0.145 | 0.982 | > 8 | 0.953 | > 8 | 0.981 | > 1 | 0.982 | > 10 |
| RPMI-8402 (T-cell lymphoblastic leukaemia, suspension) | 0.198 | 0.0498 | 0.446 | 0.0912 | 0.348 | 0.102 | 0.756 | – | 0.982 | > 8 | 0.85 | 0.582 | 0.983 | > 10 |
| KP-N-YN (neuroblastoma, adherent) | 0.383 | 0.147 | 0.836 | 1.51 | 0.957 | > 4 | 0.9 | > 8 | 0.955 | > 8 | 0.893 | > 1 | 0.987 | > 10 |
| NCI-SNU-16 (stomach, suspension) | 0.815 | 2.41 | 0.757 | 0.615 | – | – | 0.703 | 1.72 | 0.976 | > 8 | 0.874 | 0.78 | 0.979 | > 10 |
| CGTH-W-1 (thyroid, adherent) | 0.657 | 0.873 | 0.451 | 0.0919 | – | – | 0.21 | 0.0708 | 0.255 | 0.0995 | 0.899 | > 1 | 0.964 | > 10 |
| DU-4475 (breast, suspension) | 0.399 | 0.178 | 0.571 | – | – | – | 0.8 | 3.06 | 0.984 | > 8 | 0.655 | 0.154 | 0.992 | > 10 |
| SW954 (urogenital system, adherent) | 0.39 | 0.159 | 0.633 | 0.293 | – | – | 0.823 | 4.78 | 0.859 | 6.79 | 0.898 | > 1 | 0.909 | > 10 |
| SK-MM-2 (myeloma, suspension) | 0.582 | 0.543 | 0.929 | > 2 | – | – | 0.853 | 6.72 | 0.966 | > 8 | 0.72 | 0.272 | 0.987 | > 10 |
| MOLP-8 (myeloma, suspension) | 0.211 | 0.0473 | 0.531 | 0.151 | – | – | 0.761 | 2.74 | 0.972 | > 8 | 0.721 | 0.258 | 0.987 | > 10 |
| DJM-1 (skin, adherent) | 0.976 | > 5.12 | 0.742 | 0.613 | – | – | 0.97 | > 8 | 0.952 | > 8 | 0.784 | 0.42 | 0.974 | > 10 |
| OPM-2 (myeloma, suspension) | 0.32 | 0.112 | 0.791 | 0.723 | – | – | 0.805 | 3.17 | 0.969 | > 8 | 0.609 | 0.117 | 0.994 | > 10 |
| WIL2-NS (lymphoid neoplasm, suspension) | 0.181 | 0.0455 | 0.69 | 0.378 | – | – | 0.775 | 2.59 | 0.922 | > 8 | 0.763 | 0.298 | 0.965 | > 10 |
| KARPAS-231 (B-cell leukaemia, suspension) | – | – | 0.311 | 0.0425 | 0.916 | 3.5 | 0.767 | 2.34 | 0.854 | 4.17 | 0.803 | 0.367 | 0.987 | > 10 |
| MHH-NB-11 (neuroblastoma, adherent) | 0.288 | 0.0753 | 0.701 | 0.49 | – | – | 0.91 | > 8 | 0.985 | > 8 | 0.867 | > 1 | 0.9 | > 10 |
